Experimental data: the supplement of paper PMC3334620
Over roughly 33,000 sequences, “E-score (-0.5 to 0.5)” has its median near -0.012; the highest 2% begin near 0.29. Some of the results follow.

Target: T1, Ybr033w (UniProt P38073)
T1 sequence: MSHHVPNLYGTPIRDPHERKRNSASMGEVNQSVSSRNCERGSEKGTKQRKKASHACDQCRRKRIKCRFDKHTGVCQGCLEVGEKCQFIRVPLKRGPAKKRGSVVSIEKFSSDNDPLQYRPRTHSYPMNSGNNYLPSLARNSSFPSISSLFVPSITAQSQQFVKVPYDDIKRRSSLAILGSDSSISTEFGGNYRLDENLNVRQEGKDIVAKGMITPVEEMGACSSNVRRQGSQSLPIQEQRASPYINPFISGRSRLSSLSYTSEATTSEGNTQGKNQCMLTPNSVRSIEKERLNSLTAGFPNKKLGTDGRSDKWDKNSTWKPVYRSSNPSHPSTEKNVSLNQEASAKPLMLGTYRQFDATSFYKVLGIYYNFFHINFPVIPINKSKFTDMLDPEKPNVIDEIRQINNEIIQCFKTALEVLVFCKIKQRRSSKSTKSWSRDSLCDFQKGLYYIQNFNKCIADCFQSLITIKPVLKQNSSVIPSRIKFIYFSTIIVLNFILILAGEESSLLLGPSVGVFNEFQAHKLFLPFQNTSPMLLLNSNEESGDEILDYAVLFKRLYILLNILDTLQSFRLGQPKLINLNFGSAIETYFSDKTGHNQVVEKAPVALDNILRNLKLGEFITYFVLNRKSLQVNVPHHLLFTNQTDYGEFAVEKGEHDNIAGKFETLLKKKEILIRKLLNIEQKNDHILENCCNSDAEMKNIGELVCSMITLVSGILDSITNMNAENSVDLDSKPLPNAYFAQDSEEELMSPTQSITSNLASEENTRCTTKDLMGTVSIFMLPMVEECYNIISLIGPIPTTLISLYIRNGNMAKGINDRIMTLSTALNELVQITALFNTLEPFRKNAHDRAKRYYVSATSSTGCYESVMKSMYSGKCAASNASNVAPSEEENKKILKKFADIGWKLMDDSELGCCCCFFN
Assay: PBM E-score (8-mer binding enrichment) (E-score (-0.5 to 0.5)); higher = stronger / more preferred TF binding; most listed sequences are background and not binding sites
Settings: protein concentration: 200 nM; construct: GST-full length
Description: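 Universal 'all 10-mer' protein binding microarrays (Agilent AMADID 015681) probed with GST-tagged S. cerevisiae TFs (full-length or DBD) made by in vitro transcription/translation (PURExpress), about 100-200 nM. Bound TF was detected with fluorescent anti-GST. Each ungapped 8-mer (which stands for itself and its reverse complement) is scored by the PBM enrichment score (E-score), a modified Wilcoxon-Mann-Whitney statistic from -0.5 to +0.5, computed with the Universal PBM Analysis Suite. Scale: above 0.35 generally sequence-specific binding.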

Sequence	PBM E-score
ACCTTCCG	-0.032
AAATGCCC	-0.147
ACGATTTG	0.151
CTATTAGC	0.133
AACTGGGT	-0.00618
CTGGCTTA	-0.15
GGTTCGCA	-0.181
AATTTTAA	0.285
ATTAAATG	0.347
GCGGTGCA	-0.0907
ATAGCCAA	0.17
AATGAGTA	0.268
GGTAAAGA	0.168
CTGTACCC	-0.135
CGTCTGAA	-0.0988
GGATGGAA	-0.0537
AATGGCCT	-0.0295
AGGAGCCT	-0.342
CACTGGAG	-0.14
ACAGCGTC	-0.0704
ATCAGCAG	0.0244
CGGACGCC	-0.258

Sequence	PBM E-score
GCTTGGGA	-0.232
ACATCCGG	0.0515
ACACTCCC	-0.0919
CATTTTCA	0.0453
GGTCCGTA	-0.0488
CAGGAATA	0.219
ATTTAATC	0.352
TTCCGAAA	0.196
CCAAGTTA	0.19
TAAGTACA	0.186
ATCATAAA	0.174
GGGTCCAA	-0.0689
GGAATAAA	0.296
CGGACCTA	-0.031
ATAGACTC	-0.157
CAACCTTA	0.14
CAGACTAC	-0.0744
CTTAATTA	0.171
CAAGCCAA	0.0607
GAGTAGCA	0.104
ACATACGA	0.168
ATGTTTGC	-0.109

Sequence	PBM E-score
TCGTTCCA	-0.126
ATTAAAGA	0.327
ACATCGTA	-0.034
AGTACTGG	-0.185
GTGATGGA	-0.0759
TCCGTGCA	0.0759
TAGTCCAA	-0.0773
AGGCCTGG	-0.29
ACACAGCG	0.0265
CGTTCCAC	-0.18
ACAGCACG	-0.0318
CGCGTCGA	-0.0154
AAAGGCAC	-0.0183
ACTACTCA	0.148
ACGTACGT	-0.0529
CGGCCTAG	-0.193
CTAAAACC	0.0239
ACCGAGCG	-0.0137
ATCATTTC	0.258
ATACAACG	0.239
AGTACAAG	0.0813
AACACCAA	0.0475

Sequence	PBM E-score
CGTTTGTC	-0.0371
GATTGCCC	-0.214
ACTGCTTC	-0.204
CTAACCAC	-0.00459
AGGACTAG	-0.0235
GATGCACC	-0.0771
GGTCGGTA	-0.287
AGACTGAT	-0.0978
CACTCTGC	-0.0578
CGGGGGCC	-0.414
GTCCGTGA	-0.163
CGTCAAGC	-0.112
CAAGAAGG	0.00143
AATGTTCA	0.0556
GTGGACCA	-0.02
CGTCGCGA	-0.0529
ACCTGGCT	-0.0682
AACATGAC	0.116
TCGGCTCA	-0.227
GCCATGGA	-0.114
GAGTACGA	-0.0231
GCAGTATA	0.115

Sequence	PBM E-score
AGTCCATC	-0.0562
TATCGGAA	0.239
CTAGCGAC	-0.00856
AATCCCAG	-0.162
GTGCCCTA	-0.239
GTCGCTTA	-0.0249
ATTTTATG	0.186
CTACGTGC	-0.201
AGACATAA	0.128
GCAGAAGA	-0.00072
CCAGTACG	0.0255
CCGTATAG	-0.0908
GTCTTTAA	0.184
ACATAGCA	0.0147
TAGGAATA	0.194
CTATTTAA	0.022
ACTGCTCG	0.0244
AGTCTGAG	-0.207
ATCGCGGG	-0.0312
AGTTAAGG	0.031
GCGGGGAA	-0.00618
